According to the antibiotic and cytotoxicity screens of Wong et al. (2023):
This is one part of the list.

tested on: S. aureus RN4220; assay: growth inhibition call (relative growth <= 0.2); conditions: 50 µM

Growth inhibition call, inactive:
C[C@@H]1CN([C@H](C)CO)C(=O)c2cccc(NC(=O)c3ccc(-c4nccs4)cc3)c2O[C@@H]1CN(C)S(C)(=O)=O
COc1ccc(S(=O)(=O)N(C)C[C@H]2OCCCC[C@@H](C)Oc3ccc(NC(=O)CCC(F)(F)F)cc3C(=O)N([C@H](C)CO)C[C@@H]2C)cc1
COCC(=O)Nc1ccc2c(c1)[C@H]1C[C@@H](CC(=O)N3CCOCC3)O[C@H](CO)[C@H]1O2
NC1CCC(c2ccccc2)CC1 (stereo not given)
C[C@H](CO)N1C[C@H](C)[C@H](CN(C)S(=O)(=O)c2cn(C)cn2)Oc2c(NC(=O)C3CCOCC3)cccc2C1=O
Cc1noc(C)c1NC(=O)N(C)C[C@@H]1Oc2c(NS(=O)(=O)c3c(C)noc3C)cccc2C(=O)N([C@H](C)CO)C[C@@H]1C
C[C@H](CO)N1C[C@H](C)[C@H](CN(C)Cc2ccccc2)OCCCC[C@H](C)Oc2ccc(NC(=O)Nc3cccc4ccccc34)cc2C1=O
Cc1ccc(S(=O)(=O)Nc2ccc3c(c2)C(=O)N([C@@H](C)CO)C[C@@H](C)[C@@H](CN(C)CC2CC2)O3)cc1
C[C@H](CO)N1C[C@H](C)[C@@H](CN(C)CC2CCCCC2)OCCCC[C@H](C)Oc2ccc(NC(=O)Nc3cccc4ccccc34)cc2C1=O
COc1ccc([C@@H](O)[C@@H](CCO)OC)cc1O
COc1ccc2c3c(n(c2c1)C)[C@@H](CO)N(C[C@]13CCN(CC1)C(=O)Nc1c(noc1C)C)C(=O)Nc1ccc(cc1)F
C[C@@H]1CCCCO[C@H](CN(C)S(=O)(=O)c2ccc(Cl)cc2)[C@@H](C)CN([C@H](C)CO)C(=O)c2cc(NC(=O)Nc3ccccc3)ccc2O1
C[C@H]1CCCCO[C@@H](CN(C)C(=O)NC2CCCCC2)[C@@H](C)CN([C@@H](C)CO)C(=O)c2cc(NS(=O)(=O)c3ccccc3)ccc2O1
C[C@@H]1CCCCO[C@H](CN(C)C)[C@H](C)CN([C@H](C)CO)C(=O)c2cc(NC(=O)Nc3ccc(C(F)(F)F)cc3)ccc2O1
C[C@H]1CN([C@@H](C)CO)C(=O)c2c(c3ccccc3n2C)-c2ccccc2CO[C@@H]1CN(C)Cc1cccc(O)c1
Cc1cc(NC(=O)C(=O)NC[C@H]2CCCO2)n(-c2nc(=O)cc(C)[nH]2)n1
C[C@H]1CN([C@@H](C)CO)C(=O)c2cc(NC(=O)Nc3ccc(F)cc3)ccc2O[C@H]1CN(C)Cc1ccc(C(=O)Nc2ccccc2N)cc1
CC1=CC(C)(C)N(C(=O)Nc2ccc(C)cc2)c2ccccc21
COc1cccc(C#Cc2ccc3c(c2)O[C@H](CN(C)C(=O)c2ccccn2)[C@H](C)CN([C@@H](C)CO)S3(=O)=O)c1
O=C1NCCN1c1ncc([N+](=O)[O-])s1
O=C(C[C@@H]1CC[C@@H]2[C@H](COC[C@H](O)CN2S(=O)(=O)c2ccccc2F)O1)N1CCC(Cc2ccccc2)CC1
CC(C)Oc1ccc2c(=O)c(-c3ccccc3)coc2c1
N[C@@H](Cc1ccc(F)cc1)C(=O)O
CC(C)NC(=O)N(C)C[C@H]1Oc2ccc(NS(=O)(=O)c3ccc(F)cc3)cc2CC(=O)N([C@@H](C)CO)C[C@H]1C
O=C(C[C@@H]1CC[C@@H]2[C@H](COC[C@H](O)CN2C(=O)c2ccc3c(c2)OCO3)O1)NCCN1CCCCC1
Oc1cccc(c1)/C/1=C/2\CC/C(=C(\c3cccc(c3)O)c3ccc([nH]3)/C(=C\3/C=CC(=N3)/C(=C\3/C=CC1=N3)c1cccc(c1)O)c1cccc(c1)O)N2
C[C@@H]1CN([C@H](C)CO)C(=O)c2cc(NC(=O)Nc3ccccc3)ccc2O[C@H]1CN(C)Cc1ccc(Oc2ccccc2)cc1
Cc1cccc(NC(=O)C(C)C)c1
CO[C@@H](CN(C)S(=O)(=O)c1ccc(C)cc1)[C@@H](C)CN([C@@H](C)CO)S(=O)(=O)c1cccc(Cl)c1
C[C@H]1CN([C@@H](C)CO)C(=O)c2ccccc2-c2ccccc2CO[C@H]1CN(C)Cc1cccc(C(F)(F)F)c1
C[C@H](CO)N1C[C@H](C)[C@H](CN(C)CC2CCCCC2)Oc2c(NC(=O)Nc3ccccc3)cccc2C1=O
C[C@H](CO)N1C[C@H](C)[C@H](CN(C)C(=O)CN2CCOCC2)Oc2ncc(C#C[C@@H](C)O)cc2C1=O
CC[C@@H](O)C[C@H]1CC[C@H]([C@@H](C)C(=O)O[C@@H](C)C[C@H]2CC[C@H]([C@@H](C)C(=O)O[C@@H](C)C[C@H]3CC[C@H]([C@@H](C)C(=O)O[C@@H](C)C[C@H]4CC[C@H]([C@@H](C)C(=O)O)O4)O3)O2)O1
CC(C)NC(=O)N(C)C[C@H]1Oc2ccc(NC(=O)Cc3ccccc3)cc2CC(=O)N([C@@H](C)CO)C[C@H]1C
CC(C)NC(=O)Nc1ccc2c(c1)C(=O)N([C@@H](C)CO)C[C@H](C)[C@@H](CN(C)S(=O)(=O)c1ccccc1)O2
C[C@@H]1CCCCO[C@H](CN(C)S(=O)(=O)c2ccc(Cl)cc2)[C@H](C)CN([C@@H](C)CO)C(=O)c2cc(NC(=O)c3ccncc3)ccc2O1
Cc1noc(C)c1NC(=O)Nc1ccc2c(c1)CC(=O)N([C@@H](C)CO)C[C@H](C)[C@H](CN(C)Cc1ccc(Oc3ccccc3)cc1)O2
COc1ccc(CN(C)C[C@H]2OCCCC[C@@H](C)Oc3ccc(NS(=O)(=O)c4c(C)noc4C)cc3C(=O)N([C@@H](C)CO)C[C@@H]2C)cc1
C[C@H]1CN([C@@H](C)CO)C(=O)Cc2cc(NC(=O)Nc3ccccc3)ccc2O[C@@H]1CN(C)S(=O)(=O)c1cn(C)cn1
COCC(=O)N1C[C@@H](C)[C@@H](OC)CN(C)C(=O)c2cc(NC(=O)c3cc(C)on3)ccc2OC[C@@H]1C
